PubChem BioAssay AID624417 (National Center for Advancing Translational Sciences (NCATS), 2012)
The whole screen tested about 410,000 compounds, of which about 6,400 (1.6%) were called active. The inconclusive results got no clear call from the source; some entries with a clear call stand among them for comparison. Calls come from the whole dose curve; as a rule, active = well fitted inhibition curve with a large enough effect; inconclusive = small, poorly fitted or top-dose-only effect; inactive = no such curve, though single readings can be large or run the other way. No potency is given beside an inconclusive call; the fits are too rough.

What follows are compounds tested against Glucagon-like peptide 1 receptor (Homo sapiens) (UniProt P43220) (assay: qHTS of GLP-1 Receptor Inverse Agonists (Inhibition Mode)). Settings: HEK293 GLP-1R CRE-luciferase, luminescence, 24 h, GLP-1R form is constitutively active; series mostly up to 38.3 µM.
Chain of UniProt P43220 (P43220 whole entry, looked up): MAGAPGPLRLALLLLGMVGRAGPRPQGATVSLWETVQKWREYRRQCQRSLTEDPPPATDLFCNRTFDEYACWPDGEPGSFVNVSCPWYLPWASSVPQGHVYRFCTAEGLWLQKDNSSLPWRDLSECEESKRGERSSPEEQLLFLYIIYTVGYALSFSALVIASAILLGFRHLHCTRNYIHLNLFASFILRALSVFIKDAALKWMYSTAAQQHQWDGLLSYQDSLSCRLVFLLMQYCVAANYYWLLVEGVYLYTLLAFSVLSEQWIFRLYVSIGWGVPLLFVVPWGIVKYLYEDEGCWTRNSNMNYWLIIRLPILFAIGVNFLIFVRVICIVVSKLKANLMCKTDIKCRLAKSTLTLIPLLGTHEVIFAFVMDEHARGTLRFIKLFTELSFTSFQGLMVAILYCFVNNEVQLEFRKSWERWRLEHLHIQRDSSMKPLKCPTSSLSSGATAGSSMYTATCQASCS
Method in brief: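 HEK293 cells stably co-expressing constitutively active GLP-1R and a cAMP-responsive luciferase reporter were seeded in DMEM with 10% Nu serum, given compounds after 12 h, and incubated 24 h at 37 deg C. Luminescence was then read.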
Note: nearly all actives have a fitted effect of over 55% in size.
Potency is the fitted concentration of half-maximal effect; tags give direction and shape of the fitted curve.

Row | Structure (SMILES) | Potency
1 | O=C(CNC(=O)C1COc2ccccc2O1)N/N=C/c1ccc([N+](=O)[O-])cc1 (centres undefined) | inconclusive [inhibitor, partial curve]
2 | CC(=O)N1CCN(c2csc3ccc(Br)cc3c2=O)CC1 | inactive
3 | COc1cc(CCC(C)NCc2ccccc2)ccc1O (centres undefined) | inactive
4 | CC(=C/c1ccc(C(C)C)cc1)/C=N/NC(=O)Cn1nc(C)cc1C | inconclusive [inhibitor, partial curve, poor fit]
5 | Cc1nnc(N/N=C/c2ccc(Br)cc2)n1N | inconclusive [inhibitor, partial curve, poor fit]
6 | COc1ccc(N(CC(=O)NCCSCc2ccc(Cl)cc2)S(C)(=O)=O)cc1Cl | inconclusive [inhibitor, single point]
7 | Cc1cccc(NC(=O)COc2nsnc2N2CCOCC2)c1 | inconclusive [inhibitor, single point]
8 | O=C(c1ccccc1Cc1ccccc1)N1CCN(S(=O)(=O)c2ccccc2[N+](=O)[O-])CC1 | inconclusive [inhibitor, single point]
9 | O=C1NC(=O)c2cc(Oc3ccc([N+](=O)[O-])cc3)ccc21 | inactive
10 | CCCCc1oc2c(c(=O)c1C)C(=O)CC(c1ccccc1)C2 (centres undefined) | inconclusive [inhibitor, single point]
11 | COc1ccc(C(=O)CN2CCN(c3ccc(Cl)cc3)CC2)cc1OC | inconclusive [inhibitor, partial curve, poor fit]
12 | CCCOc1ccc(C(=O)CCN2CCCCC2)cc1 | inconclusive [inhibitor, full curve, poor fit]
13 | O=[N+]([O-])c1ccc(NN=Cc2ccccc2)nc1 | inactive
14 | CCc1cccc(C)c1NC(=O)Cn1cc2c(n1)CCCCC2 | inconclusive [inhibitor, single point]
15 | CCOc1ccccc1NC(=O)C(NCCc1ccc(OC)cc1)c1ccccc1 (centres undefined) | inconclusive [inhibitor, full curve, poor fit]
16 | CC(CNC(=S)Nc1cc(F)cc(F)c1)CSc1ccc(Cl)cc1 (centres undefined) | inconclusive [inhibitor, partial curve, poor fit]
17 | O=C(NCCC(=O)N(CCc1ccccc1)Cc1ccccc1)c1ccc([N+](=O)[O-])cc1 | inconclusive [inhibitor, single point]
18 | Cc1ccccc1CN(C)Cc1cc(=O)oc2c(C)c(C)ccc12 | inconclusive [inhibitor, single point]
19 | Cc1nc(NC(=O)c2ccccc2[N+](=O)[O-])sc1C(=O)N(C)C | inactive
20 | Cc1ccc(CN2C(=O)N(c3ccccc3)C(=O)C2CC(=O)Nc2ccccc2)cc1 (centres undefined) | inconclusive [inhibitor, single point]
21 | COc1cccc(C(=O)NC2CC3CCCC(C2)N3CC(=O)Nc2ccccc2C(F)(F)F)c1 (centres undefined) | active: 2.24 µM
22 | Cc1ccc(-c2noc(CCCC(=O)NC3CCCC3)n2)cc1 | inconclusive [inhibitor, single point]

Row | Structure (SMILES) | Potency
23 | COC(=O)[C@@]12CCCCN1[C@H](c1ccc(-c3ccc(F)cc3)c(OC)c1)[C@@H]1C(=O)N(C)C(=O)[C@@H]12 | active: 10 µM
24 | Cc1ccc(OCCNC(=O)C(C)SCC(=O)Nc2ccc(F)cc2)cc1 (centres undefined) | inconclusive [inhibitor, single point]
25 | Cc1cccc(C(=O)NC(=S)Nc2ccc(S(=O)(=O)N3CCN(C)CC3)cc2)c1 | inconclusive [inhibitor, single point]
26 | O=C(CN1C(=O)COc2ccc(S(=O)(=O)N3CCCCCC3)cc21)NCCc1ccccc1 | inconclusive [inhibitor, partial curve]
27 | O=C(c1ccccc1NS(=O)(=O)c1ccc(Cl)cc1)N1CCc2ccccc21 | inconclusive [inhibitor, partial curve, poor fit]
28 | CCOC(=O)c1c(NC(NC(C)=O)C(Cl)(Cl)Cl)sc2c1CCCC2 (centres undefined) | inconclusive [inhibitor, partial curve, poor fit]
29 | CCc1noc(C)c1C(=O)Nc1nc2ccc(OC)cc2s1 | inactive
30 | COc1ccc(Nc2nc(-c3ccccc3)cs2)cc1 | inconclusive [inhibitor, single point]
31 | CCCCN(C)C(=O)c1ccc2c(c1)N(Cc1ccc(F)cc1)C(=O)c1ccccc1S2(=O)=O | inconclusive [inhibitor, partial curve, poor fit]
32 | O=[N+]([O-])/C(N=Nc1ccccc1)=N\Nc1ccccc1 | inconclusive [inhibitor, partial curve, poor fit]
33 | Oc1ccc(Cc2ncc(C(F)(F)F)cc2Cl)cc1 | inconclusive [inhibitor, single point]
34 | Cc1ccc(-c2nc(CS(=O)CC(=O)N3CCN(c4ccc(F)cc4)CC3)c(C)o2)cc1 (centres undefined) | inconclusive [inhibitor, partial curve]
35 | OCc1cccc(Nc2ncnc3sc4c(c23)CCCCC4)c1 | inconclusive [inhibitor, full curve]
36 | O=C(NC1CCCCC1)c1cc(-c2ccc(F)cc2)on1 | inactive
37 | COc1cc2[nH]c(C(=O)N3CCC(Cc4ccccc4)CC3)cc2c(OC)c1OC | inconclusive [inhibitor, partial curve, poor fit]
38 | CC(C)CCNC(=O)c1c2c(nc3ccccc13)C(=O)N(C1CCCCC1)C2 | inactive
39 | CCOC(=O)N1CCC(N(CCN(C)C)C(=S)Nc2ccc(F)c(Cl)c2)CC1 | inconclusive [inhibitor, single point]
40 | COc1cccc(Nc2c([N+](=O)[O-])cncc2[N+](=O)[O-])c1 | inactive
41 | O=C(Cc1ccccc1[N+](=O)[O-])NCCCc1ccccc1 | inconclusive [inhibitor, partial curve, poor fit]
42 | O=C(Nc1ccc(Cl)cn1)c1cccc(F)c1 | inconclusive [inhibitor, single point]
43 | Cc1ccc(N2C(=O)C3CC(c4ccccc4)=C4C5C=CC(C6C(=O)N(c7ccc(C)cc7C)C(=O)C56)C4C3C2=O)c(C)c1 (centres undefined) | inconclusive [inhibitor, partial curve, poor fit]
44 | CC(=O)N1CCOc2cc(S(=O)(=O)Nc3c(C)cccc3C(C)C)c(Cl)cc21 | inconclusive [inhibitor, single point]

Row | Structure (SMILES) | Potency
45 | COc1ccc(N=c2cc(-c3ccc(OC)cc3)oc3ccccc23)cc1 | inconclusive [inhibitor, single point]
46 | O=C(Cc1ccc(Cl)cc1)N1CCc2ccccc2C1 | inconclusive [inhibitor, single point]
47 | C=C(C)Cn1c(=O)c2c(nc3n2CC(C)CN3Cc2ccccc2)n(C)c1=O (centres undefined) | inconclusive [inhibitor, partial curve, poor fit]
48 | CC(C)C(=O)NC(c1cccc([N+](=O)[O-])c1)c1ccc2cccnc2c1O (centres undefined) | inconclusive [inhibitor, full curve, poor fit]
49 | O=C(NNC(=O)c1ccccn1)c1ccc(OC(F)F)cc1 | inconclusive [inhibitor, single point]
50 | S=C(Nc1cccc(Br)c1)c1ccccc1 | active: 12.6 µM
51 | O=C(C[C@H]1C/C=C\CC[C@@H](Cc2ccc(F)cc2)C(=O)O[C@H](c2ccccc2)CNC1=O)N[C@H](CO)Cc1ccccc1 | inconclusive [inhibitor, single point]
52 | COc1cc(C2C(C#N)=C(N)N(c3sc4c(c3C#N)CCCC4)C3=C2C(=O)CC(C)(C)C3)cc(OC)c1OC (centres undefined) | inactive
53 | COc1ccccc1-c1ccc(SCc2ccccc2)nn1 | inconclusive [inhibitor, single point]
54 | CCn1c2ccccc2c2cc(NC(=O)CSc3nnc(C4CC4)n3Cc3ccco3)ccc21 | inconclusive [inhibitor, single point]
55 | CCCCCOc1ccc(N2C(=O)C3C4C=CC(C3C2=O)N(C)C4=O)cc1 (centres undefined) | inconclusive [inhibitor, partial curve]
56 | CC(C)Oc1ccc(CNC(=O)C2CCCCN2S(=O)(=O)c2ccc(F)cc2)cc1 (centres undefined) | inconclusive [inhibitor, single point]
57 | O=C(NC(c1ccc(F)cc1)c1cnccn1)C1CCN(CCOc2ccc(Cl)cc2Cl)CC1 (centres undefined) | inconclusive [inhibitor, partial curve, poor fit]
58 | CCN(Cc1cc(OC)c(OC)c(OC)c1)C(=S)Nc1cccc(SC)c1 | inconclusive [inhibitor, single point]
59 | N/C(=N\OC(=O)c1ccc(Cl)cc1)c1ccccn1 | inconclusive [inhibitor, partial curve, poor fit]
60 | O=C(CSc1nc(-c2ccccc2)cc(C(F)(F)F)n1)NCc1ccco1 | inconclusive [inhibitor, single point]
61 | CCOC(=O)c1ccc(NC(=O)C2(c3ccc(OC)cc3)CCOCC2)cc1 | inconclusive [inhibitor, partial curve, poor fit]
62 | On1cnnc1-c1ccccc1 | inactive
63 | CCOC(=O)CCC(NC(=O)CCCCC(=O)NC(CCC(=O)OCC)C(=O)OCC)C(=O)OCC (centres undefined) | inactive
64 | CCCCC(=O)Nc1c(C(=O)N2CCN(c3ccccc3)CC2)oc2ccccc12 | inconclusive [inhibitor, single point]
